# The other results are listed elsewhere or left out. The data describe in vitro nicking of single-stranded DNA by Rep domains (1 h at 37 °C, 3 µM enzyme); the outer parts of the 90-letter strands are left off. Uncut reads are compared with the no-enzyme pool on a log2 scale; strong cutting gives strongly negative numbers. There is no active / inactive call. The scaling is to total reads, so uncut sequences can rise above 0 when many others are cut.
# Columns and labels:
# Assay in all cases: uncleaved DNA left, log2 of reads against the no-enzyme library (log2 ratio); higher = less cleavage (more negative = more Rep cleavage of the k-mer); sequences stand for … in CTCGTCCG…ACCGGAGA
# [1] = tested on: T1, Rep nickase domain of Muscovy duck circovirus
# T1 sequence (residues 1-111 of Rep, tag left off): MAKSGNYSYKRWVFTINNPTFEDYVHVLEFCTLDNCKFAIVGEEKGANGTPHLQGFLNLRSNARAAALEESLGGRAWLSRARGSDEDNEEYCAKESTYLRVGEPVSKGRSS
# Method: (§1)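 A pool of 90-nt single-stranded DNAs with seven random bases just before the constant AC of the nick site (name = the seven bases) was cut by 3 µM recombinant His6-SUMO-tagged Rep nickase domain (300 nM DNA, 50 mM HEPES pH 8.0, 50 mM NaCl, 1 mM MnCl2, 1 h, 37 °C, three replicates). Uncut DNA was amplified and sequenced.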
# [2] = tested on: T2, Rep nickase domain of banana bunchy top virus
# T2 sequence (residues 1-94 of Rep, tag left off): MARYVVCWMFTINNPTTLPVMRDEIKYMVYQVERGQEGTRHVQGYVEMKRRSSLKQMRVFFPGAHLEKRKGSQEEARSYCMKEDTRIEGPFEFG
# Method: as §1
# [3] = tested on: T3, Rep nickase domain of cabbage leaf curl virus
# T3 sequence (residues 1-116 of Rep, tag left off): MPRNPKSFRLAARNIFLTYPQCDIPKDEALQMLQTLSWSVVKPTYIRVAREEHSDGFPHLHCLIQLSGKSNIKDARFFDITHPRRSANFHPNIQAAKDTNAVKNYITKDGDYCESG
# Method: as §1
# [4] = tested on: T4, Rep nickase domain of chickpea chlorotic dwarf virus
# T4 sequence (residues 1-124 of Rep, tag left off): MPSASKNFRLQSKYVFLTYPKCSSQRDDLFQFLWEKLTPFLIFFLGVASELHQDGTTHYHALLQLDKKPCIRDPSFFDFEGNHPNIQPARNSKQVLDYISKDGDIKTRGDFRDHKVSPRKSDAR
# Method: as §1
# [5] = tested on: T5, Rep nickase domain of faba bean necrotic yellows virus
# T5 sequence (residues 1-98 of Rep, tag left off): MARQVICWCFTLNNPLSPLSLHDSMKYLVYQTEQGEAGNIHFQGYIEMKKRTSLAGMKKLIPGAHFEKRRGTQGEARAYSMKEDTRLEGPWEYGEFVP
# Method: as §1
# [6] = tested on: T6, Rep nickase domain of maize striate mosaic virus
# T6 sequence (residues 1-117 of Rep, tag left off): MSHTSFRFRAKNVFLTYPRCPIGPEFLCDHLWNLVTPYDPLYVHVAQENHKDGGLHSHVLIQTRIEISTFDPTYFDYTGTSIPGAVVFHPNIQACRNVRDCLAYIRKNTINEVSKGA
# Method: as §1
# [7] = tested on: T7, Rep nickase domain of porcine circovirus 2
# T7 sequence (residues 2-116 of Rep, tag left off): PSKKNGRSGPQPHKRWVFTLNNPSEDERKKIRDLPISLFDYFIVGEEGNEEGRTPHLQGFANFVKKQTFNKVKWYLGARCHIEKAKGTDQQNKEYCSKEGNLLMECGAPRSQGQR
# Method: as §1
# [8] = tested on: T8, Rep nickase domain of tomato golden mosaic virus
# T8 sequence (residues 1-124 of Rep, tag left off): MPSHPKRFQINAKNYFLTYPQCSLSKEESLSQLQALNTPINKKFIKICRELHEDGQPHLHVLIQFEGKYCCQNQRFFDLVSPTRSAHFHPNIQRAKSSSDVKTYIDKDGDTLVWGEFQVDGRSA
# Method: as §1
# [9] = tested on: T9, Rep nickase domain of tomato yellow leaf curl virus
# T9 sequence (residues 1-136 of Rep, tag left off): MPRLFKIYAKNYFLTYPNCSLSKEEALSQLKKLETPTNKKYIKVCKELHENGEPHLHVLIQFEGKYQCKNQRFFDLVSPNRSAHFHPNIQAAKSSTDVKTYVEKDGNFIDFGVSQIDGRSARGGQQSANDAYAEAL
# Method: as §1
# [10] = tested on: T10, Rep nickase domain of wheat dwarf virus
# T10 sequence (residues 1-137 of Rep, tag left off): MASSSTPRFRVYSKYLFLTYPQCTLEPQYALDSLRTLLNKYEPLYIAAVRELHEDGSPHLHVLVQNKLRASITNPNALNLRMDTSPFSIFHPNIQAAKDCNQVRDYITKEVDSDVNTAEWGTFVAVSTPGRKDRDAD
# Method: as §1
Sequence,uncleaved DNA left (log2) [1],uncleaved DNA left (log2) [2],uncleaved DNA left (log2) [3],uncleaved DNA left (log2) [4],uncleaved DNA left (log2) [5],uncleaved DNA left (log2) [6],uncleaved DNA left (log2) [7],uncleaved DNA left (log2) [8],uncleaved DNA left (log2) [9],uncleaved DNA left (log2) [10]
TCGCGTT,-0.0422,-0.108,-0.74,-1.22,-0.128,-1.21,-0.515,-0.27,-0.121,-0.116
GTGGACC,0.0034,0.0475,0.769,1.75,0.000878,2.19,0.259,0.134,0.052,0.136
GCATACG,0.0372,-0.0157,-0.62,-0.161,0.141,-0.612,0.171,0.0502,0.0745,-0.063
GAACGCA,0.00827,0.0609,0.0704,-0.229,0.0535,0.0558,0.0505,0.0674,-0.0506,0.124
TTAATCG,0.0963,0.0445,-0.798,-0.322,0.0416,-1.21,0.117,0.0254,-0.0212,-0.0081
GATCGAG,0.0274,0.0282,0.429,0.855,-0.0217,0.219,0.18,0.0172,-0.00592,0.000273
TCCATCC,0.0154,0.0238,0.0511,-0.091,-0.0747,-0.593,-0.000621,0.0399,-0.0143,-0.0412
TTGGTCG,-0.0377,-0.0735,-0.779,0.0975,0.0247,-0.857,-0.018,-0.0145,0.00928,-0.195
CACGCAT,0.134,0.00807,-0.363,-2.05,0.0257,-0.704,-0.0371,-0.0124,0.084,-0.0559
CCAGCTC,-0.0874,0.0846,0.107,-0.192,-0.07,-0.241,0.0393,0.0525,-0.0444,-0.115
GTCTGTT,-1.35,0.0394,0.172,0.36,-0.00572,1.56,-2.31,-0.00566,0.0525,0.0262
CAGTAAA,-0.134,-0.0197,-0.139,-0.91,-0.205,-0.712,-3.15,0.0726,-0.119,-0.0438
TGGTCTT,-1.07,-0.0931,0.45,-0.317,-0.113,1.47,-3.01,-0.111,-0.0532,0.113
TTCTCGG,-0.118,0.0617,0.531,1.49,-0.196,2,0.111,0.109,-0.129,-0.0644
CCATCTA,0.0255,0.096,-0.149,-1.34,0.0682,-0.642,-0.0213,0.0675,0.0756,0.0123
AAATTTT,-4.08,-1.85,-4.9,-3.72,-0.162,-3.8,-4.72,-4.2,-1.81,-4.66
TTCTGCA,-0.138,-0.0381,-0.581,-1.18,-0.0744,-1.3,-0.154,-0.0797,-0.108,-0.109
TAATAAG,0.0636,-0.0666,-1.25,-1.85,0.00255,-1.2,0.104,0.0168,-0.0167,-0.0741
GCGCCAG,-0.115,0.124,0.0913,0.385,0.101,0.0917,0.128,0.0558,0.0708,0.0721
TGACGAT,-0.0186,-0.0472,0.0999,0.373,-0.114,1,-0.554,-0.0676,-0.15,0.0461
AGCCCTC,0.127,0.00265,0.719,1.48,-0.00624,1.67,0.0484,0.00432,0.0414,0.185
CAAATGT,-0.0901,-0.149,-1.25,-2.49,-0.0497,-1.26,-0.228,-0.194,0.0138,-0.367
CAGGTAA,-0.192,0.0279,0.103,0.628,-0.107,0.909,0.114,0.0522,-0.0684,0.0408
CGCCGGC,0.0225,0.0632,0.36,0.346,0.145,0.12,0.105,0.00667,0.025,0.00865
CGAACAT,-0.0306,0.0443,0.434,1.17,-0.0294,1.39,0.154,-0.0449,0.108,0.182
GCGTAGA,0.0927,0.0349,0.161,0.468,0.0243,-0.0142,0.106,0.0693,0.0706,0.105
ATGGGTA,-0.0181,-0.188,0.112,0.798,-0.0196,1.15,-0.0289,0.0752,-0.121,-0.106
TGCAGAT,0.0589,-0.0154,0.21,0.887,0.13,0.985,0.123,0.113,-0.0269,-0.0199
CCTGAGT,0.0179,0.0284,-0.3,-0.629,-0.00109,-0.932,-0.161,-0.0432,-0.0336,-0.0496
CTGTTGC,0.0301,-0.102,-0.696,-0.49,0.102,-1.14,0.0369,-0.132,0.000416,-0.088

# Source: the supplement of paper PMC7826260
